Reference: the RNAGym collection of RNA variant scans (doi:10.1093/nar/gkz1192)
Read counts are not given, so values of variants with three or more changes are uncertain.

B1: CPEB3 Ribozyme (parent)
chain: UAACAGGGGGCCACAGCAGAAGCGUUCACGUCGCAGCCCCUGUCAGAUUCUGGUGAAUCUGCGAAUUCUGCUGUAUAUCUC

Variants of: B1
Experiment: self-cleavage, relative activity (ratio to wild type); higher = more cleavage; in vitro, sequencing
In short: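 Relative activity was defined as the cleaved/total read fraction for a variant divided by the same fraction for the unmutated ribozyme. CPEB3 self-cleaving ribozyme libraries were made by rounds of error-prone PCR, barcoded, and transcribed in vitro with T7 RNA polymerase for 5 hours at 37°C, and cleavage ran through transcription plus a 15 min DNase I step before EDTA. Illumina sequencing of template-switched reverse transcripts gave the reads, and DNA sequencing mapped the barcodes. Averages come from three batches, using variants with at least 5 reads.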

Variant	self-cleavage
C11G A35G U41C U49C U54C U60A	0.05
C11G A35G U69C	0.46
C11G A45G A47G	0.1
C11G A45G A47G U60G U80C	0.09
C11G A45G U48A U72C	0.28
C11G A45G U51C	0.36
C11G A47G U48C	0.08
C11G A47G U49C	0.07
C11G A56G C81U	0.25
C11G A57G A64G U66C	0.13
C11G A57G U67A U74A A75G	0.1
C11G A57G U67C U72C U76A	0.12
C11G C14U C17G A18G U25C U78C	0.06
C11G C17A A18C A56G U60G	0.05
C11G C17U C29U A45G A56U	0.06
C11G C17U C32G C50G U60A U72C U80A	0.03
C11G C17U C39G	0.21
C11G C17U U41C	0.54
C11G C17U U43A	0.48
C11G C17U U51C	0.35
C11G C23G U41C U72C	0.06
C11G C23U G36U U51C U69C	0.04
C11G C23U U26C U51G U60C	0.05
C11G C23U U31A U48C	0.04

Variant	self-cleavage
C11G C23U U51A U60A	0.06
C11G C27G U67C U72A	0.04
C11G C27U A28G U51A	0.06
C11G C29U U49A	0.03
C11G C29U U60A	0.26
C11G C32A A45G U54C	0.08
C11G C32G U43A U66C	0.07
C11G C32G U60C U72A U78C	0.03
C11G C34G A64G U72C	0.08
C11G C40U U43A	0.21
C11G C40U U51A A57G	0.37
C11G C59U U78C	0.38
C11G C62U A75C U78G	0.04
C11G G16A A21G U49C U67C U80C	0.05
C11G G16C A35U A64G	0.05
C11G G16U A47G A64G U69C	0.16
C11G G19U C34U A35G C39A	0.26
C11G G22A C32A A47C U51A U60C A64G	0.04
C11G G22A U51A U54A U72A U78A	0.04
C11G G22U C27U U31A U48G U49A U69C	0.08
C11G G24C U49C	0.13
C11G G30A A47G A65G	0.07
C11G G30A U31C U49G U51C G53U U66C	0.04
C11G G63A A64G U67C	0.04

Variant	self-cleavage
C11G U25C A28G U48C	0.05
C11G U25C A65G	0.08
C11G U25C G36U U41C	0.04
C11G U25C G36U U41C A57G A65G	0.06
C11G U25C U26C U41A A64G A65G U69C	0.29
C11G U25C U60C U80C	0.08
C11G U25G A28G G30A A45C	0.05
C11G U26A A28G U31A A45G	0.05
C11G U26A A35G	0.47
C11G U26A A57G U66C U72C	0.18
C11G U26A U60C A77G U80A	0.08
C11G U26C A35G U60A G63A C79U	0.06
C11G U26C A47G U51C	0.12
C11G U26C C32U G46U	0.17
C11G U26C G30U A64G U66A	0.04
C11G U26C G36A U41C U51A	0.24
C11G U26C U43C A56U	0.32
C11G U26C U51A U60A	0.23
C11G U26C U51C U58A U69C U80C	0.07
C11G U26C U51C U78C	0.15
C11G U26C U54C A56U C71U	0.05
C11G U26G U43C A56G U72C	0.14
C11G U26G U48C A64G A65G U76C U78C	0.07
C11G U26G U51C A56G U66C U80A	0.04

Variant	self-cleavage
C11G U31A U41C U51C U54C A56G U67C	0.06
C11G U31A U43C	0.07
C11G U31C A35U U41C U80C	0.33
C11G U31C A45U U69G	0.12
C11G U31G U41A C71G	0.05
C11G U31G U51G U54C A75U	0.09
C11G U41C U51A U54C U78C U80A	1.03
C11G U41C U54C U74A	0.98
C11G U41C U74C	1
C11G U43A A45U U80C	0.06
C11G U43A A56G	0.51
C11G U43A C59A U67C	0.05
C11G U43A U60A U72A U80A	0.08
C11G U43C U51A C62A A64G U78A	0.04
C11G U43C U58C A64U	0.19
C11G U48C A56U C62U U67C U78C	0.09
C11G U49A G52A	0.59
C11G U51C A56G U74A	0.35
C11G U51C U54C	0.48
C11G U51C U58A	0.13
C11G U51C U66G U78A	0.07
C11G U54C A64G U78A	0.26
C11G U54C U74G	0.46
C11G U58A U74C	0.22

Variant	self-cleavage
C11G U58C C59U U69C A77G	0.08
C11G U60C A64U	0.09
C11G U66A U72A	0.28
C11G U67A U78C	0.1
C11U A13G A18G U51A U76C	0.06
C11U A13G A21U U58C U80C	0.24
C11U A13G A45U U51A U60A	0.3
C11U A13G A57G A64U U66A U76A	0.13
C11U A13G C62U	0.03
C11U A13G U78C	0.24
C11U A13U A45G U80A	0.15
C11U A13U U26A G33A	0.09
C11U A13U U31A A35G U41C U80C	0.75
C11U A13U U31A U41C A77G	0.3
C11U A13U U31A U41C U60A	0.1
C11U A15G A28G C50U U80C	0.15
C11U A15G A77U	0.34
C11U A15G G30A U48C U54C A64U	0.04
C11U A15G U26C C40U U76C	0.06
C11U A15G U26C U48C U80G	0.04
C11U A15G U48C G61C U78C	0.05
C11U A15G U58C A64U	0.1
C11U A15U C40G A65G	0.01
C11U A15U U26C U51C A57G	0.17

Variant	self-cleavage
C11U A18C A45G U67G	0.16
C11U A18C U26C A56G U66G U80C	0.03
C11U A18G A28U A56G U69C U78A U80C	0.08
C11U A18G A75G	0.09
C11U A18G C29U	0.33
C11U A18G C38A U43C U51C C68U U72A	0.04
C11U A18G G19U U60A	0.08
C11U A18G U26C A56U	0.17
C11U A18G U31C A64G A65G U80C	0.05
C11U A18G U41A U67A	0.07
C11U A18G U43A A57U	0.11
C11U A18G U58C C68U	0.05
C11U A18G U78C	0.16
C11U A18U A20U A45G U49C	0.08
C11U A18U A21G C38A U69C	0.03
C11U A18U U49C U51A A57G U67A U69G	0.03
C11U A20C U25C C32A C59U U60A U72G	0.03
C11U A20C U54A A56G	0.06
C11U A20G A28G U41C A64G	0.24
C11U A20G A35G G46U	0.44
C11U A20G A35G G46U A56U	0.17
C11U A20G A35U U54C A64G U67C	0.07
C11U A20G A45G	0.62
C11U A20G A45G U78G U80A	0.12

Variant	self-cleavage
C11U A20G A64C	0.14
C11U A20G C39A U41C U51A	0.11
C11U A20G U26G A35G U72A	0.14
C11U A20G U31C U58A U67C U72C	0.21
C11U A20G U49C	0.09
C11U A20G U69A A75U	0.26
C11U A20U U26A A47G U72A U80C	0.05
C11U A20U U26A U43C U51C C59A	0.04
C11U A20U U31C U72A G73A	0.05
C11U A20U U41C A57G A77U	0.06
C11U A20U U49C	0.19
C11U A20U U60C U69A	0.05
C11U A21C U49C U69G U80A	0.03
C11U A21G A35G U54G	0.47
C11U A21G G24A U74A U78C	0.05
C11U A21G G61A	0.42
C11U A21G U25C A35U	0.21
C11U A21G U25G C29U A35G U48C	0.19
C11U A21G U31C U43A G52C U74C U76C	0.14
C11U A28C A47U U48C A57G U58A	0.1
C11U A28G A64G	0.16
C11U A28G A65C	0.34
C11U A28G C38U A45U U51G U66C U72A	0.02
